# Data taken from PubChem BioAssay AID463173 (ICCB-Longwood Screening Facility, Harvard Medical School, 2010).
# Among all 52,000 compounds or so, about 1,700 (3.3%) were called active. No stated cut-off is given here; in the data, active means survival mostly below about 52% (no sharp cut-off); inactive means mostly above about 56%. Some of the results follow.
# Test system: Wild type
# Assay: growth inhibition of S. aureus wild type versus tarO mutant, primary screen, teichoic acid synthesis inhibitors, RN4220, OD600 (AID 463173)
# Details: S. aureus RN4220 wild type/DeltatarO growth, OD600, 18 h, stronger effect = lower value, screened at 18.75 µg/mL (by protocol)
row,Compound,survival
1,CN(C)CCCN1C(=O)C2CCc3[nH]c4ccccc4c3C2C1=O (configuration not stated),inactive: 103%
2,Cc1cc(OCCn2cc(C(=O)c3ccco3)c3ccccc32)ccc1Cl,inactive: 54%
3,COc1ccccc1NC(=O)CSc1oc(-c2ccco2)nc1S(=O)(=O)c1ccc(Br)cc1,inactive: 93%
4,COc1cccc(CNC(=O)CCc2nc(-c3ccc(C)cc3)no2)c1,inactive: 165%
5,O=C(Nc1ccccc1)c1ccncc1,inactive: 91%
6,COc1ccc(-c2nnc(SCC(=O)Oc3cccc(C)c3C)o2)cc1,inactive: 83%
7,Cc1nn(CC(=O)NCc2cccc(F)c2)c(=O)c2c(C)n(-c3ccc(Cl)cc3)nc12,inactive: 75%
8,COc1ccccc1Oc1nc2c(C)cccn2c(=O)c1/C=C(\C#N)c1nc2ccccc2[nH]1,inactive: 65%
9,COc1ccc(N(C(=O)c2ccccc2C)S(=O)(=O)c2ccc(C)cc2)cc1,inactive: 79%
10,Cc1ccc2c(c1)c1c(c(=O)n(-c3ccccc3)c(=O)n1CC(=O)NCCC1=CCCCC1)n2C,inactive: 68%
11,CC1CN(C(=O)CCC(=O)NCc2cccs2)c2cc(Cl)ccc2O1 (configuration not stated),inactive: 95%
12,O=S(=O)(c1cc(Cl)ccc1Cl)N1CCCC1,inactive: 78%
13,CCOC(=O)C1=C(CN2CCN(c3cc(C)ccc3C)CC2)NC(=O)NC1c1ccccc1 (configuration not stated),inactive: 73%
14,COc1ccc(-n2cc(C(=O)NCc3ccc(Cl)cc3)c3ccccc3c2=O)cc1,inactive: 128%
15,COc1ccc2nc(N(Cc3cccnc3)C(=O)c3ccco3)sc2c1,inactive: 70%
16,Cc1ccc(CCNC(=O)c2cc3sccc3n2Cc2ccc(Cl)cc2)cc1,inactive: 92%
17,CCOC(=O)c1cc(-c2ccc(C)cc2)n(CC(=O)Nc2ccc(OC)c(Cl)c2)c1C,inactive: 99%
18,O=C(NC1CCCC1)C(c1ccccc1)N(Cc1ccc2c(c1)OCO2)C(=O)c1ccco1 (configuration not stated),inactive: 110%
19,CCc1ccc2oc(C(=O)NCCc3ccc(OC)c(OC)c3)cc(=O)c2c1,inactive: 83%

row,Compound,survival
1,COc1ccccc1N1CCN(S(=O)(=O)c2cc(-c3cc(C)no3)ccc2C)CC1,inactive: 68%
2,COc1cccc(CN2C(=O)C3(SCC(=O)N3c3cc(C)cc(C)c3)c3ccccc32)c1 (configuration not stated),inactive: 70%
3,O=C(c1ccc2c(c1)OCCO2)N(Cc1cccnc1)c1nc2ccc(Cl)cc2s1,inactive: 78%
4,Cc1ccc(-c2nnn(CC(=O)N(CC(=O)NCCC(C)C)c3ccc(F)cc3)n2)cc1,inactive: 84%
5,CCC(C)NC(=O)c1ccccc1NC(=O)C1CCN(S(=O)(=O)Cc2ccccc2)CC1 (configuration not stated),inactive: 83%
6,COc1ccc(NC(=O)CN2C(=O)C(C)Oc3ccccc32)cc1 (configuration not stated),inactive: 97%
7,COc1ccc(S(=O)(=O)Nc2cc(-c3cn4cccc(C)c4n3)ccc2C)cc1C,inactive: 59%
8,Cc1ccc(C(C)C)c(OCC(=O)Nc2nc3c(s2)CCCC3)c1,inactive: 93%
9,CCCCCOC(=O)c1ccc(Nc2nc(C(=O)OCC)nc3ccccc23)cc1,inactive: 83%
10,Cc1coc2c1c(C)cc1oc(=O)c(CC(=O)NCc3ccc(Cl)cc3)c(C)c12,inactive: 90%
11,O=C(NCCc1ccc(F)cc1)C(=O)NCC(c1ccc2c(c1)OCO2)N1CCOCC1 (configuration not stated),inactive: 88%
12,Cc1ccc2nc(-c3c[nH]c4ccccc34)c(Nc3ccccc3)n2c1,inactive: 87%
13,CCCN1CCN(CC2=C(C(=O)OCC)C(c3ccc(OC(C)C)cc3)NC(=O)N2)CC1 (configuration not stated),inactive: 72%
14,CCNc1nc(NCC)nc(NCCO)n1,inactive: 98%
15,CCOc1ccc(-c2nc(CSCC(=O)NCCc3ccc(OCC)c(OCC)c3)c(C)o2)cc1,inactive: 91%
16,COc1ccccc1-c1c(C)nn2c(N3CCN(c4ccccc4)CC3)cc(C)nc12,inactive: 70%
17,CSc1nc2c(sc3ccccc32)c(=O)n1Cc1ccc(C)cc1,inactive: 72%
18,CCn1c(=O)c(=O)n(CC)c2cc(N3CCCCC3)c(NC(=O)c3ccccc3OC)cc21,inactive: 89%
19,COc1ccc(OC)c(CNC(=O)CN2N=C(c3ccc(Cl)cc3)CCC2=O)c1,inactive: 80%

row,Compound,survival
1,O=C(NCCc1ccc(Cl)cc1)C(=O)NCC(c1cccs1)S(=O)(=O)c1cccs1 (configuration not stated),inactive: 84%
2,CCCOC1(C(F)(F)F)NC(=O)N(c2cccc(Cl)c2)C1=O (configuration not stated),inactive: 91%
3,C=Cc1ccc(Cn2c(C(=O)O)c(CNC3CCCCC3)c3ccc(OC)cc32)cc1,inactive: 115%
4,COc1cccc(CNC(=O)C(=O)NCC(c2ccc3c(c2)OCO3)N2CCOCC2)c1 (configuration not stated),inactive: 73%
5,O=C(CN(CCO)CCO)N(C1CCCCC1)C1CCCCC1,inactive: 95%
6,O=C(Nc1ccc2nc(SCC(=O)N3CCOCC3)sc2c1)c1ccc(Br)cc1,inactive: 95%
7,COc1ccc(C(=O)Nc2cc(-c3nc4ccccc4s3)ccc2OC)cc1,active: 5%
8,CCC(C)NC(=O)CSc1c2c(nc3cc(Cl)ccc13)CCCC2 (configuration not stated),inactive: 82%
9,CCOc1ccc(NC(=O)CSc2nnc(CNC(=O)C34CC5CC(CC(C5)C3)C4)n2CC)cc1,inactive: 123%
10,CCOC(=O)c1ccccc1NC(=O)Nc1cc2c(cc1N1CCCC1)n(C)c(=O)n2C,inactive: 124%
11,Cc1cc2oc(C(=O)Nc3cccc(-c4nc5ccccc5o4)c3)c(C)c2cc1C,inactive: 84%
12,COc1ccc(-n2nc3cc(C)c(NC(=O)Cc4ccc(Cl)cc4)cc3n2)cc1,inactive: 73%
13,CC(Oc1ccccc1)C(=O)Nc1ccccc1C(=O)OCc1cc(=O)n2nc(C(C)C)sc2n1 (configuration not stated),inactive: 68%
14,CCc1ccc(NC(=O)CSc2nc(-c3cccc(OC)c3)nc3c2Cc2c(CO)cnc(C)c2O3)cc1,inactive: 85%
15,O=C(NCCc1ccccc1)c1ccc(Cn2c(SCc3ccccc3F)nc3cccnc32)cc1,inactive: 79%
16,O=C(CSc1nc(=O)n(Cc2ccncc2)c2c1CCC2)Nc1ccc(F)cc1F,inactive: 80%
17,CCCN1CN=C(NS(=O)(=O)c2ccc(NC(C)=O)cc2)NC1,inactive: 73%
18,COc1ccc(-c2noc(-c3ccc(N4CCN(c5ccccc5OC)CC4)c([N+](=O)[O-])c3)n2)cc1,inactive: 81%
19,COc1cc(C(=O)N(Cc2ccc(N(C)C)cc2)CC2CCCO2)cc(OC)c1OC (configuration not stated),inactive: 86%
